# In PubChem BioAssay AID686978 (National Center for Advancing Translational Sciences (NCATS), 2013):
# Screen size: about 420,000 compounds; about 64,000 (15%) were called active. Inconclusive means that the source gave no clear call. Such entries were picked first, then a sample of the others. The call rests on the fitted dose curve; in most records, active means well fitted inhibition curve with a large enough effect; inconclusive means small, poorly fitted or top-dose-only effect; inactive means flat fitted curve, though single readings scatter. Potencies of inconclusive entries are left out as doubtful fits.
# Assay: qHTS for Inhibitors of human tyrosyl-DNA phosphodiesterase 1 (TDP1): qHTS in cells in absence of CPT; further: nearly all actives have a fitted effect of over 55% in size
# Conditions: DT40 Tdp1-/- hTDP1 cells, no CPT, ATP luminescence, 48 h; activity change, negative = growth inhibition: at 46.2 µM (top of the series) unless noted
# Outline: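 Chicken DT40 Tdp1-/- cells stably complemented with human TDP1 were seeded at 400 cells/well with DMSO in place of 20 nM camptothecin. After compound pinning, cells grew at least 48 hr at 37 °C; viability read by CellTiter-Glo luminescence.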
# On the % scale 0 is the no-effect control and ±100 the full control effect; potency means the concentration at half of the fitted maximal effect; tags describe the fitted curve by direction and shape.
SMILES,Potency,"activity change, negative = growth inhibition"
CCOC(=O)N1CCC(N(CCCOC)C(=O)Nc2ccc(CC)cc2)CC1,active: 13 µM,–
O=C(c1ccccc1)c1cnc2ccc(Cl)cc2c1N1CCOCC1,–,inactive: -7.12%
Cc1sc2nc(CN(C(=O)NCc3ccccc3)C3CCCC3)[nH]c(=O)c2c1C,"inconclusive [inhibitor, single point]",–
Cc1cccc(Nc2nc(N)nc(CN3CCN(C)CC3)n2)c1,–,inactive: 6.99%
OCc1ccnc2c(O)cccc12,"inconclusive [inhibitor, single point]",–
COc1ccc(C#Cc2cnc3c(c2)C(=O)N([C@@H](C)CO)C[C@@H](C)[C@@H](CN(C)CC2CCOCC2)O3)cc1,active: 20.6 µM,–
Cc1cccc(C)c1NC(=O)CSc1nnc(-c2ccoc2C)n1CCc1ccccc1,–,inactive: -9.45%
COc1ccc(NC(=O)CN(C)C(=O)c2ccccc2SCC(=O)N2CCCC2)cc1,–,inactive: -16.5%
CN(C)c1ccc(-c2nc(-c3ccccn3)no2)cc1[N+](=O)[O-],active: 18.4 µM,–
CCCS(=O)(=O)NC(=O)C1(C)CCN(C(=O)c2ccc(F)c(Cl)c2)C1 (stereo not given),–,inactive: 13.1%
CCOC(=O)N1CCN(C2CCCN(C(=O)c3cccc(N(C)C)c3)C2)CC1 (stereo not given),"inconclusive [inhibitor, partial curve]",–
CC(C)CN1CCN(Cc2c[nH]c3ccccc23)CC1CCO (stereo not given),"inconclusive [inhibitor, partial curve]",–
Cc1ccc(NC(=O)COc2ccc3oc4c(c3c2)CCCC4)c(C)c1,"inconclusive [inhibitor, partial curve]",–
CCCCN(C/C=C/c1ccccc1OC)Cc1ccccc1,"inconclusive [inhibitor, single point]",–
COc1cc(NCCC(=O)c2cccs2)c(OC)cc1Cl,active: 4.61 µM,–
OC(c1ccc(Cl)c(F)c1)c1ncc(-c2ccccc2Cl)[nH]1 (stereo not given),"inconclusive [inhibitor, single point]",–
C/C(=N\NC(=O)Cc1ccc(F)cc1)c1ccc(O)cc1,"inconclusive [inhibitor, partial curve, poor fit]",–
c1ccc(Nc2nc(N3CCCCC3)nc(N3CCNCC3)n2)cc1,active: 18.4 µM,–
CC(N=Cc1nc(-c2ccccc2)oc1O)c1ccccc1 (stereo not given),"inconclusive [inhibitor, partial curve, poor fit]",–
CCC(=NCc1ccccc1)C1=C(O)C(C(=O)OC)C(C)(C)CC1=O (stereo not given),–,inconclusive: -30.2% [inhibitor]
Cc1ccc(-n2ncc(C(=O)NCc3cccs3)c2C2CCN(C(=O)OC(C)(C)C)CC2)c(C)c1,"inconclusive [inhibitor, single point]",–
Cc1c(NC(=O)Nc2cccs2)cccc1[N+](=O)[O-],"inconclusive [inhibitor, single point]",–
Brc1ccccc1-c1nnc(COc2cccc3cccnc23)o1,"inconclusive [inhibitor, single point]",–
COc1ccc(NC(=O)C2=C(C)Nc3nc(SCc4ccccc4C)nn3C2c2cc(OC)c(O)c(OC)c2)cc1 (stereo not given),–,inactive: -0.674%

SMILES,Potency,"activity change, negative = growth inhibition"
COc1ccc(-c2n[nH]c(=S)o2)c(OC)c1,"inconclusive [inhibitor, single point]",–
Cc1cc(C)n(CCc2nc(-c3ccc(-c4ccccc4)cc3)cs2)n1,"inconclusive [inhibitor, single point]",–
CC(C)C1C(=O)N(Cc2cn(CCC3OCCO3)nn2)CCS(=O)(=O)N1Cc1ccc(-c2ccccc2Cl)cc1 (stereo not given),active: 14.6 µM,–
Cn1c(SCc2ccc([N+](=O)[O-])cc2)nc2c(c1=O)SCC2,"inconclusive [inhibitor, partial curve]",–
CC1CCCCC1NC(=O)Cn1c(=O)oc2cc(S(=O)(=O)N3CCCC3)ccc21 (stereo not given),"inconclusive [inhibitor, partial curve]",–
COC(=O)c1cc(C(=O)OCC(=O)NNC(=O)c2cccs2)cc([N+](=O)[O-])c1,–,inactive: -10.9%
Cc1cc(C)cc(NCc2cc3c(cc2[N+](=O)[O-])OCO3)c1,"inconclusive [inhibitor, single point]",–
CCc1ccc(S(=O)(=O)NCCc2cn3cccc(C)c3n2)s1,"inconclusive [inhibitor, single point]",–
COc1ccc(Cl)cc1NC(=O)CCc1nnc2ccc(N3CCC4(CC3)OCCO4)nn12,–,inactive: -28.7%
CCN(c1ccccc1)P(=O)(Nc1ccccc1)Nc1ccccc1,"inconclusive [inhibitor, single point]",–
COc1ccc(OC)c(NC(=O)Nc2nnc(N3CCCCC3C)s2)c1 (stereo not given),"inconclusive [inhibitor, single point]",–
COc1ccc(C(=O)Nc2ccc3ccccc3n2)c(OC)c1OC,"inconclusive [inhibitor, partial curve]",–
O=C(NCc1ccccc1Cl)c1ccc(CSCc2ccccc2Cl)o1,active: 20.6 µM,–
COc1ccccc1-c1nc(S(=O)(=O)c2ccc(Cl)cc2)c(N(C)C)o1,–,inactive: 2.39%
CCOc1ccc2nc(N3CCC(C(=O)N4CCN(c5ncccn5)CC4)CC3)sc2c1,"inconclusive [inhibitor, single point]",–
CC(C)Cc1ccc(-c2cc(=O)[nH][nH]2)cc1,"inconclusive [inhibitor, single point]",–
COc1cc(OC)cc(-c2c(Sc3ccccc3)c3cc(-c4cnc(N5CCOCC5)nc4)ccc3n2C)c1,"inconclusive [inhibitor, partial curve, poor fit]",–
CCC(C(=O)NCc1ccccc1)n1nc(C)c2sc3ccccc3c2c1=O (stereo not given),"inconclusive [inhibitor, single point]",–
COc1ccc(NC(=O)CCn2c(=O)c3cccn3c3cccnc32)c(OC)c1,active: 14.6 µM,–
O=C(NCc1cccs1)C1CCCN(c2ncccn2)C1 (stereo not given),–,inactive: -2.25%
COc1ccc(-c2noc(CC(=O)Nc3ccc(F)cc3F)n2)cc1,–,inactive: -11.5%
CON(C)S(=O)(=O)c1cccc(C(=O)Nc2ccc(S(=O)(=O)NC3=NCCCCC3)cc2)c1,"inconclusive [inhibitor, single point]",–
CCOC(=O)C1=C(C)N=c2s/c(=C3/C(=O)Nc4ccccc43)c(=O)n2C1c1ccc(C)cc1 (stereo not given),active: 23.1 µM,–
COc1ccccc1OC(C)C(=O)Nc1ccc(-c2nc3ccccc3s2)cc1 (stereo not given),"inconclusive [inhibitor, partial curve]",–

SMILES,Potency,"activity change, negative = growth inhibition"
Nc1ccc(C(=O)N/N=C/c2cn(Cc3ccccc3F)c3ccccc23)cc1,"inconclusive [inhibitor, single point]",–
COc1ccc(-c2cn3c(C)c(C(=O)Nc4cc(NC(C)=O)ccc4OC)sc3n2)cc1,active: 9.2 µM,–
O=C(CSc1ccccn1)Nc1ccc2[nH]c(=O)[nH]c2c1,–,inactive: 17.3%
Cc1csc(N(C(=O)CCNC(=O)c2ccc([N+](=O)[O-])cc2)c2ccccc2)n1,"inconclusive [inhibitor, single point]",–
O=C(Nc1ccccc1N1CCCC1)c1ccc(F)c(S(=O)(=O)N2CCOCC2)c1,"inconclusive [inhibitor, single point]",–
OC(c1ccccc1)c1ncc(-c2ccccc2Cl)[nH]1 (stereo not given),–,inactive: -15.2%
CCN1C(=O)[C@H]2[C@@H](c3ccc(OC)cc3)N[C@]3(CCCN(Cc4ccc(C(F)(F)F)cc4)C3=O)[C@H]2C1=O,active: 18.4 µM,–
NNC(=O)C(=O)/C=C1\NC2(CCCC2)Cc2ccccc21,–,inactive: -3.48%
O=C(Nc1cc(Cl)ccc1-n1cncn1)c1ccco1,–,inactive: 10.8%
Cc1ccc(-c2noc(Cn3cc(S(=O)(=O)N4CCCC4)ccc3=O)n2)cc1,"inconclusive [inhibitor, partial curve]",–
COc1cccc(-c2cccc(-c3nc(C(=O)NCCCN4CCOCC4)cc4c3[C@H](CCO)N(S(=O)C(C)(C)C)C4)c2)c1 (stereo not given in full),active: 18.4 µM,–
O=C(N/N=C/c1cc(Br)c(O)c([N+](=O)[O-])c1)C(O)(c1ccccc1)c1ccccc1,"inconclusive [inhibitor, single point]",–
Cc1ccc(F)cc1C(=O)N1CCCC(c2cc(C(=O)Nc3ccccc3)no2)C1 (stereo not given),"inconclusive [inhibitor, single point]",–
COc1cc(-c2nnc3n2CCCCC3)cc(OC)c1OC,–,inactive: 18.1%
O=C(COc1ccccc1)Nc1ccc(N2CCN(C(=O)c3cccs3)CC2)cc1,"inconclusive [inhibitor, single point]",–
O=C1C(=O)c2c(C(=O)c3ccccc3)coc2-c2ccccc21,active: 2.06 µM,–
COc1ccc(/C=N/NC(=O)c2ccc(N(C)S(=O)(=O)c3ccccc3)cc2)c(OC)c1,"inconclusive [inhibitor, single point]",–
CCN(CC)c1ncnc2c1ncn2[C@H]1CN(Cc2ccc(-c3ccccc3)cc2)C[C@@H](CO)O1,active: 16.4 µM,–
COc1cccc(/C=C/c2ccc3ccccc3[n+]2C)c1OC,"inconclusive [inhibitor, partial curve, poor fit]",–
COc1ccc(-c2cc(C(=O)OC(C)C(=O)c3ccccc3)c3cccc(Cl)c3n2)cc1 (stereo not given),–,inactive: -1.91%
Cc1ccc(C)c(NC(=S)NNc2ccc(F)cc2F)c1,"inconclusive [inhibitor, single point]",–
COCC(=O)Nc1cc(C(=O)N2CCc3c([nH]c4ccccc34)C2)cc2nc(-c3ccccc3)n(C)c12,"inconclusive [inhibitor, single point]",–
